The record followed here is publication PMC4336329 (PLoS ONE, 2015).

Molecules are shown by their SMILES. The campaign covered roughly 310,000 compounds. About 2,200 (0.71%) showed an effect of 50% or more. The effect is printed as a negative number. This is one part of the list.

In this test the target is human ether-à-go-go-related gene (hERG) potassium channel (human, UniProt Q12809). Nature of the test: primary screen, population patch clamp on CHO cells stably expressing hERG.
Chain of human ether-à-go-go-related gene (hERG) potassium channel (Q12809 whole entry, looked up): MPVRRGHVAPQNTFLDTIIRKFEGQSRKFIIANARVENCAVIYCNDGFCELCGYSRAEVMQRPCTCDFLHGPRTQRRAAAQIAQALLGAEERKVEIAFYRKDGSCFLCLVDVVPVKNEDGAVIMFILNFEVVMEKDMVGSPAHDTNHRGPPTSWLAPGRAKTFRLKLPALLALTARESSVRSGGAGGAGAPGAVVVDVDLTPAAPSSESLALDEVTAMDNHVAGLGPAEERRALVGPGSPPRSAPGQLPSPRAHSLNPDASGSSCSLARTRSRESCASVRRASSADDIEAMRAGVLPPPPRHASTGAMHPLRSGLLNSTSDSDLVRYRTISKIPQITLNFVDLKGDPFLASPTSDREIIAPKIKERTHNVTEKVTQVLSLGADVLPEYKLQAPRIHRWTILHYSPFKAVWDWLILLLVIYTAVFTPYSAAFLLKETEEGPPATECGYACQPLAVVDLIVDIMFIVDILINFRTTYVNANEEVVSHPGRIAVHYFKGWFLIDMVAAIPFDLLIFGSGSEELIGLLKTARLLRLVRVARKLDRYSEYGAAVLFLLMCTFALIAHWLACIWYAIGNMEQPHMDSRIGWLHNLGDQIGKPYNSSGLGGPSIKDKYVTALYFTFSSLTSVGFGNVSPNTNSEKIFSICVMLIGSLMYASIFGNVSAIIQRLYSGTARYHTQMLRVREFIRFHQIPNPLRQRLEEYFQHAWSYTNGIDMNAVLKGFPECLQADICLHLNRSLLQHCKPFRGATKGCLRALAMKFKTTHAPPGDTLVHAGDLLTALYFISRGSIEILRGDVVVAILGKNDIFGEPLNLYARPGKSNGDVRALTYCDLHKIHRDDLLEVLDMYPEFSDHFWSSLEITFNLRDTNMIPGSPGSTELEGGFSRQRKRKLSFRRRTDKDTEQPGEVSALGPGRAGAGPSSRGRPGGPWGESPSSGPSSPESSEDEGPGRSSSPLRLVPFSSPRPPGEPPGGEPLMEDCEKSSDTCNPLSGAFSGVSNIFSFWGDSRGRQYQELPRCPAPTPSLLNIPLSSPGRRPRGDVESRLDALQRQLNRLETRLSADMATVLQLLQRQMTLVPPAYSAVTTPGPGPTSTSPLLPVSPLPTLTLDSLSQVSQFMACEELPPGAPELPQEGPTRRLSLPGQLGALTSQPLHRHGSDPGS
For `O=C(CC1C(=O)Nc2ccccc2N1CC(=O)N1CCCC1)Nc1ccc(Br)cc1` (centres unmarked), the “hERG current change (%, negative = inhibition) at 1uM” value was determined as 3.28%.

For the compound `CC(C)c1nc(SCC(=O)N2CCCC2)c2c(=O)n(C)c(=O)n(C)c2n1`, the “hERG current change (%, negative = inhibition) at 1uM” value came out at 8.45%.

As to `C=CCn1c(SCC(=O)N(C)C2CCS(=O)(=O)C2)nnc1-c1ccccc1` (centres unmarked), the “hERG current change (%, negative = inhibition) at 1uM” value worked out at 16.2%.

As to `Cc1cccc(C)c1NC(=O)NCCSc1snnc1C`, the “hERG current change (%, negative = inhibition) at 1uM” value came out at 18.8%.

On to `CCN(CC)C(=O)CSc1nc(C)cc(C)n1`, for which the “hERG current change (%, negative = inhibition) at 1uM” value was 11.5%.

Regarding `CCC(C)n1c(-c2cc(OC)c(OC)c(OC)c2)nc2nc3ccccc3nc21` (centres unmarked), the “hERG current change (%, negative = inhibition) at 1uM” value came to 0.431%.

As for `O=c1[nH]cccc1-c1nc2ccccc2[nH]1`, the “hERG current change (%, negative = inhibition) at 1uM” value is 13.1%.

As to `CCC1Oc2ccccc2N(CC(=O)NC2CCCCC2C)C1=O` (centres unmarked), the “hERG current change (%, negative = inhibition) at 1uM” value is reported as 18.7%.

Consider `Brc1ccc(Cn2c(-c3cncs3)nc3ccccc32)cc1`, for which the “hERG current change (%, negative = inhibition) at 1uM” value worked out at 6.24%.

Take `COC(=O)[C@H](CCSC)NC(=O)Nc1ccc(C)cc1C`: the “hERG current change (%, negative = inhibition) at 1uM” value turned out to be 12.8%.

For the compound `O=C(CCCN1C(=O)CCC1=O)Nc1ccc2c(c1)OCCO2`, the “hERG current change (%, negative = inhibition) at 1uM” value was 4.6%.

As for `CCOC(=O)C1=C(c2ccccc2)O/C(=C(/C#N)C(F)(F)F)S1`, the “hERG current change (%, negative = inhibition) at 1uM” value was 14.2%.

Take `CC(C)c1onc(C(=O)NCc2ccccn2)c1[N+](=O)[O-]`: the “hERG current change (%, negative = inhibition) at 1uM” value was 1.69%.

On to `Cc1ccc(N2C(=O)c3cccc4c(Oc5ccccc5[N+](=O)[O-])ccc(c34)C2=O)c(C)c1`, for which the “hERG current change (%, negative = inhibition) at 1uM” value is on record as 7.31%.

Consider `N#CC(CC(=O)c1ccc(F)cc1)c1ccc2c(c1)OCO2` (centres unmarked), for which the “hERG current change (%, negative = inhibition) at 1uM” value is recorded as 12.5%.

As to `CCN(CC)CCNC(=O)CN1C(=O)COc2ccc(S(=O)(=O)N3CCOCC3)cc21`, the “hERG current change (%, negative = inhibition) at 1uM” value was determined as 11.2%.

As for `Cc1ccc(/C=C/C(=O)NCCc2cccc(Cl)c2)o1`, the “hERG current change (%, negative = inhibition) at 1uM” value amounted to 5.9%.

Turning to `CC1(C)C2([N+](=O)[O-])CN3CN(C2)CC1([N+](=O)[O-])C3`, the “hERG current change (%, negative = inhibition) at 1uM” value was found to be 10.9%.

On to `O=C(Cc1ccc([N+](=O)[O-])cc1)OCc1c(F)cccc1Cl`, for which the “hERG current change (%, negative = inhibition) at 1uM” value came out at 14.7%.

`Cc1ccc(S(=O)(=O)N2CCN(C(=O)CCC(=O)NCc3ccc(F)cc3)CC2)cc1`: the “hERG current change (%, negative = inhibition) at 1uM” value was -7.78%.

As to `Cc1cccnc1NC1(C(F)(F)F)N=C(c2ccccc2)NC1=O` (centres unmarked), the “hERG current change (%, negative = inhibition) at 1uM” value is listed as -1.99%.

Consider `COC(=O)c1ccc(S(=O)(=O)N2C3CCC2CC(NC(=O)C2CC2)C3)cc1` (centres unmarked), for which the “hERG current change (%, negative = inhibition) at 1uM” value is 10.6%.

Regarding `Cl.NC(N)=NCCCC(NC(=O)c1ccccc1)C(=O)Nc1ccc([N+](=O)[O-])cc1` (centres unmarked), the “hERG current change (%, negative = inhibition) at 1uM” value is given as 13%.

On to `COc1ccc(/C=N/n2c(N)c(S(=O)(=O)c3cccs3)c3nc4ccccc4nc32)cc1OC`, for which the “hERG current change (%, negative = inhibition) at 1uM” value is reported as 18.1%.

Turning to `CCCCc1ccc(C(=O)NC(C(=O)O)C(C)C)cc1` (centres unmarked), the “hERG current change (%, negative = inhibition) at 1uM” value worked out at 16.1%.

In the case of `CCOC(=O)N1CCN(S(=O)(=O)c2ccc(OC)cc2)CC1`, the “hERG current change (%, negative = inhibition) at 1uM” value worked out at 7.63%.

Turning to `Cc1ccc2nc(Cl)c3nnnn3c2c1`, the “hERG current change (%, negative = inhibition) at 1uM” value turned out to be 1.13%.

For `COc1ccc(C)cc1NC(=O)Nc1cccc(C(=O)O)c1`, the “hERG current change (%, negative = inhibition) at 1uM” value was found to be 10.7%.

For `Cc1ccc(CN2CCN(Cc3ccc(OC(C)C)cc3)CC2CCO)o1` (centres unmarked), the “hERG current change (%, negative = inhibition) at 1uM” value is listed as -7.31%.

With `O=c1[nH]c(CN2CCN(c3ccc(O)cc3)CC2)nc2scc(-c3ccc(Cl)cc3)c12`, the “hERG current change (%, negative = inhibition) at 1uM” value is 0.484%.

Regarding `Cc1ccc(NC(=O)c2sc3ncn(CC(=O)N4CCN(c5ccccn5)CC4)c(=O)c3c2C)cc1Cl`, the “hERG current change (%, negative = inhibition) at 1uM” value was 10.5%.

`CCCOc1ccc(CCc2n[nH]c(=S)n2-c2ccccc2)cc1`: the “hERG current change (%, negative = inhibition) at 1uM” value stood at 7.74%.

In the case of `CCOC(=O)C1CCCN(c2cc(=O)n(Cc3ccc(F)cc3)c(=O)[nH]2)C1` (centres unmarked), the “hERG current change (%, negative = inhibition) at 1uM” value is -6.54%.

Take `O=C(NC(=S)Nc1ccc(N2CCCCC2)c(Cl)c1)c1ccc2c(c1)OCCO2`: the “hERG current change (%, negative = inhibition) at 1uM” value came to 13.4%.

As to `COC1CCCN(C(=O)c2ccc3nc(Cc4cccc(Cl)c4)oc3c2)C1` (centres unmarked), the “hERG current change (%, negative = inhibition) at 1uM” value is reported as 9.46%.

As for `Cc1ccc(OCc2cc(C(=O)N(C)Cc3cnc4ccccn34)no2)cc1C`, the “hERG current change (%, negative = inhibition) at 1uM” value is 2.9%.

In the case of `c1ccc(Oc2ncnc3sccc23)cc1`, the “hERG current change (%, negative = inhibition) at 1uM” value is listed as 16.3%.

Take `CC1(c2nnc(-c3cccc(Cl)c3)o2)CC(c2ccccc2Br)=NO1` (centres unmarked): the “hERG current change (%, negative = inhibition) at 1uM” value stood at 1.19%.

With `Cc1cc(C(=O)O)ccc1N=Cc1c(O)ccc2ccccc12`, the “hERG current change (%, negative = inhibition) at 1uM” value turned out to be 9.88%.

As for `CCOC(=O)CSc1nc(C)cc2c1C(=O)OC2`, the “hERG current change (%, negative = inhibition) at 1uM” value turned out to be 4.41%.

As for `Cn1c(=O)c2c(SCc3ccccn3)nc(C3CC3)nc2n(C)c1=O`, the “hERG current change (%, negative = inhibition) at 1uM” value amounted to 12.1%.

With `N#C/C(=C(/O)COc1ccc(Br)cc1)c1nnc2n1CCCCC2`, the “hERG current change (%, negative = inhibition) at 1uM” value is on record as 2.1%.

For the compound `O=C(COc1ccccc1)Nc1nnc(S(=O)(=O)N2CCCCCC2)s1`, the “hERG current change (%, negative = inhibition) at 1uM” value is -11.7%.

Take `CC(=O)Nc1cnc(NC(=O)c2cccc(F)c2)cc1C`: the “hERG current change (%, negative = inhibition) at 1uM” value is 12%.
